Experimental data: the supplement of paper PMC11417369
Some of the results follow.

The sequences below were run on PF3D7_0420300 AP2 domain 1 (GST-tagged) (assay: gcPBM binding intensity (ln(normalized median fluorescence intensity)); higher = stronger DNA binding).
Outline: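 GST-tagged P. falciparum DNA-binding domains produced in E. coli were incubated for 1 h on an Agilent 4 × 180k array of primer-extended double-stranded 36-bp intergenic genomic probes with negative controls. Binding intensity is the highest Masliner-normalised natural-log median intensity across replicate spots of either probe orientation, with bound protein detected by Alexa488 anti-GST antibody at 488 nm.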

Row | Sequence | gcPBM binding intensity (ln)
1 | AGCATTTCTTTTACATGTACATAATATTTTTAATAA [XGTACX_site1968] | 9.37
2 | AAAAAAAAAAAAAAAAAAATAAAAAATAAATAAATA [CACACA_negctrl_site1498] | 8.88
3 | TATATATGTATGTATGCATGCCCTTTTTTAAAAAAA [TGCATGCA_site434] | 9
4 | AAGAAAAAACAAACATGTACACATAATTTAGTTTTT [XGTACX_site3121] | 9.25
5 | AATGTATTAAAATTACGTACATATGCACATTTTATA [XGTACX_site5046] | 9.3
6 | TTTTTTATTTTGTGCACACACATAAAAATATAAATA [CACACA_site6497] | 9.24
7 | TACTCTTTCCAGAAGTGTACATAGAAATAATTACAT [XGTACX_site2668] | 9
8 | TAAAAATAATATATTTGTACATATGTGTATACATAA [XGTACX_site741] | 8.99
9 | TATAAATACATACATACACACATATATATATATATT [CACACA_site6116] | 9.54
10 | TCCTAAAAAAAAAAAAAAAATGAAAAAGGAAAAAAA [CACACA_negctrl_site1646] | 9.03
11 | CAAGCACAGAAACACACACACACACCGACACAGACA [CACACA_site4359] | 10.2
12 | AAAAAAAAAAAAAAAAGTACTAAATGTAAAAGAATA [XGTACX_site2164] | 9.32
13 | AAAAGTTGTTTATAATGTACAAGGTAGAAAAAAACA [XGTACX_site1454] | 9.35
14 | TAAATGGATTGTTCAGGTACACATAAATATGATATT [XGTACX_site6963] | 9.24
15 | ATATTATATAATAATGCATGCACCTTATTTTCATTT [TGCATGCA_site405] | 9.41
16 | AACAAAATAAAAATAACACACACATTTATATATATA [CACACA_site8313] | 10
17 | ATTATATTATTTTAAAGTACACACATATATTAATAT [XGTACX_site4769] | 9.52
18 | ATATGCTAATAAAATTGTACATATTATTCATATTGT [XGTACX_site2344] | 9.29
19 | CAATTAAAGAAAAACAGTACGTGTATCAAACATCCT [XGTACX_site8990] | 9.6
20 | ATAAATACTTTTTGGTGTACACTTTTAAATGAAAAA [XGTACX_site3042] | 8.91
21 | ATTTTTCCTCTCTTTTGTACTTATATATATATATAT [XGTACX_site7405] | 9.64
22 | TGACTACATAAAATGACACACACAAACTTTAAAATT [CACACA_site9151] | 9.7
23 | ATATATTTTTAGCACAGTACAATATAATTAAATATA [XGTACX_site6779] | 9.2

Row | Sequence | gcPBM binding intensity (ln)
24 | CATAAAATTGTGAAGTGTACATATTTTTAAATATAA [XGTACX_site8986] | 9.08
25 | ATATATAATATAAGATGTACAATAAAATCTATATAT [XGTACX_site546] | 9.37
26 | ATAACTTTATTTTCCTGTACACACATTTGACATATT [XGTACX_site7192] | 9.92
27 | AGAAATATCTAATTGTGTACTCAAGAAAAAGTTACG [XGTACX_site372] | 9.29
28 | ATATTTTATATGTTCACACATACATAAACATATTTT [CACACA_site4948] | 9.34
29 | GAATAAAAATTTTAATGTACATATTTTTTATTTATA [XGTACX_site8935] | 9.04
30 | GGTAGTTATTATCTCCGTACTTATAAAGAAAAAAGG [XGTACX_site4674] | 9
31 | TTTATTTTCATATGAACACACATATAAATATTATAA [CACACA_site7172] | 9.17
32 | TACAAATATATAAAATGTACATATATATACATATTA [XGTACX_site3029] | 9.1
33 | TTTTTATTATTTAAATGTACATATAAATATATATAT [XGTACX_site6870] | 9
34 | AAGAAGAAACGGAAAAGTACAAAGAAGAAATAAGTA [XGTACX_site3680] | 9.36
35 | CTTACAGACATATATACACACATGTATATTTTATAT [CACACA_site549] | 9.49
36 | ATGTTTTTAATTTATTGTACATTAATTTGTATTATT [XGTACX_site253] | 9.48
37 | TTTTCTTTTCTCTTCTTTTTCTCCCATTATTAATCT [XGTACX_negctrl_site406] | 9.18
38 | GAGGATGCCTATGGCACACATTATAAAACTGTCGCT [CACACA_site4322] | 9.11
39 | TCTGTAAACATATTCACACACATAAATTCGCATATA [CACACA_site1866] | 9.66
40 | ACAAAATAATTGTTTACACACCCATTTGTAATTTTA [CACACA_site3615] | 9.46
41 | GAAAATTTATATTGCACACATAGGGAATAAAAAAAA [CACACA_site2146] | 9.53
42 | TATCATTGTTCATGCTTGCACTTTTGTTACTGTTCC [GTGCAC_site9425] | 9.5
43 | TGTATGAAAATAAATGCATGCCAAATATATATATAT [TGCATGCA_site132] | 9.4
44 | AAAATGAAATATGTTATATATATATATATATATATA [CACACA_negctrl_site1752] | 8.98
45 | TAATTTCCTTAAGAATGTACTTACATTTTATTATTT [XGTACX_site5998] | 9.16
46 | ATGGACAAGTTAAACGCACACAAATATATACAGACA [CACACA_site1652] | 9.83

Row | Sequence | gcPBM binding intensity (ln)
47 | GTTTATGTATTATTATGTACGTATCATAATATATAT [XGTACX_site2385] | 9.49
48 | TAATATGAAATGTGTACACACGCACCCACAAAAAAA [CACACA_site8949] | 9.74
49 | AAAAAATATAAAAAAAGTACACAAAAACTACAAAAA [XGTACX_site2677] | 9.77
50 | AAAAAGAGGAAAAAGATAAAGAAATTAAAGGAGAGA [CACACA_negctrl_site423] | 9.4
51 | TTTAATCATTTTATTTGTACTCATAAAAAATATAAT [XGTACX_site5537] | 8.84
52 | TTTTACTTAAGACACACACACACAAAAAAAAAAAAA [CACACA_site6573] | 9.88
53 | TAAACATAAATATGCACACATATACAGATATTCATA [CACACA_site5471] | 9.44
54 | ATAAAATACATATAAACACACATATAAACCGACATA [CACACA_site2477] | 10
55 | AGTTTTTACTCTAATGGTACAGTGCAACTAATAAAT [XGTACX_site6950] | 9.1
56 | ATATATTCCATAAAGGTGCTGTTAACGTGTCAACGT [GTGCAC_site9402] | 9.29
57 | TTTATGTAAAAATATAGTACATATTAAAAGATAAGA [XGTACX_site8134] | 9.18
58 | TAAGTATACACATACACACACACACTAAAAAAAAAA [CACACA_site6337] | 10.1
59 | ACTTTATTTTCCTGTACACACATTTGACATATTAAA [CACACA_site3378] | 9.83
60 | CACCAAACTAAATGTACACACATACATAAATATAAA [CACACA_site4765] | 9.67
61 | AAAAACAAAAAAAAAACACACAATTCTAGTTATTTT [CACACA_site2767] | 9.45
62 | TTTTTTTTCCTAATGTGTACTAAAAATGAACAATAA [XGTACX_site5248] | 8.84
63 | AACATTATTTTGTGTACACATTCGGTTATATTATAT [CACACA_site5628] | 9.68
64 | TTTTTTATTTTATTTTATTTTTATTTTTTTTTTTTT [GTGCAC_negctrl_site596] | 9.09
65 | AAAAAAAAGAAACACACACACATACACATAAATATA [CACACA_site3807] | 10.1
66 | ATATTTTTTTCATAGACACACACAATATATCTGTTT [CACACA_site8993] | 9.64
67 | ATTTCATTTATAAGGATATCTACTTTTTATTTTAAT [GTGCAC_negctrl_site59] | 9.2
68 | AAACGAAAAAAATGGTGTACATTAAAATGAAAATTG [XGTACX_site7040] | 9.34
69 | TCTATCTTTTCCAAACGTACATTTTTTATATAAATT [XGTACX_site5352] | 9.23

Row | Sequence | gcPBM binding intensity (ln)
70 | TATTTTCCCTCCATATGTACTTAATTATAAGCACAT [XGTACX_site4000] | 9.12
71 | TATATATCGCATAAAACACACAAAAAAAAAATTAAA [CACACA_site7767] | 9.39
72 | TTATATTCTATTTATTGTACTTAAATATATATATAT [XGTACX_site6400] | 9.27
73 | ATATATATCTTTTGTGTGCACATATATATAATATAT | 9.73
74 | AAAAAAAAAATATACACACACACATACACATAAATA [CACACA_site3808] | 10.1
75 | TTTTTTTTGGTATAATGTACATTTTCACTTATGTAT [XGTACX_site3259] | 9.48
76 | ACATATGTTAAAAAGGCATGCATTCTTTTTATTTTA [TGCATGCA_site1043] | 9.05
77 | ATTTTATTTTCTCACACACACATATATATATATATA [CACACA_site5781] | 10
78 | ACCAAAAAAAAAAAAAAAAAAATATACATATATATA [GTGCAC_negctrl_site582] | 9.05
79 | GTGCCATTTAAAAAATGTACAAGAAAATGTTCATCA [XGTACX_site2865] | 8.97
80 | TATTTTAATTTTTTTTTGTTTTTTCTAATACATGTA [CACACA_negctrl_site1399] | 9.15
81 | TGGTATTGAATTTTTTGTACACATAAAATATATATA [XGTACX_site7614] | 9.15
82 | ATAACATATTTCTTTTGTACTCAAAATAAAATTAAT [XGTACX_site2479] | 8.91
83 | AATTTTGTTGAGCACACACACATACATACATACATA [CACACA_site3154] | 9.93
84 | AAATATATTTTATTTTGTACTTATGTATAAAATATA [XGTACX_site914] | 8.89
85 | ATTAAATTTCCTTGAGTGCACATTTTGTTAAAATAT | 9.24
86 | TATATATATATATATTGTACTAGTGCATATATATAC [XGTACX_site7926] | 9.2
87 | ACGTGATAAATAAATACATGCATAGAAAGATGCATA [TGCATGCA_site91] | 9.18
88 | TTTAAATATTTTAATACACACACGATATGTACAAAA [CACACA_site4455] | 9.5
89 | TACAATGAAAAAATAACATGCAATTATATTTCTCTT [TGCATGCA_site833] | 9.17
